The other results are listed elsewhere or left out. At the low end of the ranking the order means little. The protein was read in a cell extract, so binding may be indirect.

The assay deals with T1, HNF4alpha8 (COS-7 nuclear extract) (UniProt P41235-5).
T1 sequence: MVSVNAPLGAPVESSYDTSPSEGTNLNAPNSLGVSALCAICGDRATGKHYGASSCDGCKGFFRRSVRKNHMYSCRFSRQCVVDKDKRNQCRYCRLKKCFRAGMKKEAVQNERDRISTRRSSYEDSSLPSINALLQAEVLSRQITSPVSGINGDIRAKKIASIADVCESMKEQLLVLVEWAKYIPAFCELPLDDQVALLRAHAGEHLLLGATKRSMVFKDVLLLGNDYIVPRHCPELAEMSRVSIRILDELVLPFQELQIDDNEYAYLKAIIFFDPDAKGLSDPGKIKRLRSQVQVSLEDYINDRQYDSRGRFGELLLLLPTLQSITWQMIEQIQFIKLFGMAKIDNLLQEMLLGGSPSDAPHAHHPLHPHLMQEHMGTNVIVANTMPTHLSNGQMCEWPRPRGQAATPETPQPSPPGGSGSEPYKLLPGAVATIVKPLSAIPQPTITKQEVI
The experiment in a line: protein-binding microarray. The note with it: COS-7 nuclear extract on double-stranded Agilent 4x180k PBM; binding buffer, salt, pH and temperature not given; high values mean tight binding; double strand, one strand shown; sequences stand for … in …GCCTAGGGAGATTAGAGTATCGGTCGA
Regarding TGTAATTGCTTAAACCTAGCTACTAGCCAT, the binding signal (log2 normalized intensity) was -1.22.
In the case of GCTAAGAAGACCAACAGGTGAAGACATGCT, the binding signal (log2 normalized intensity) is -1.23.
On to TCAGTGTACTTAAAAATGCCTTTCATCTTT, for which the binding signal (log2 normalized intensity) came to 1.06.
For ACAACATACCACAATAAAGTATACAAGGGA the value was -1.2; for CTCTACCGTCCTCCCCCACGACAGAATTGA, 4.7.
For AGTTGTTTGCAGAGGGAAAGCGAGAGAGCC the value was -1.29; for GGCGCCGCTCTGAGTGACCTTTCACCCGCG, 7.77; for CTTGAAGCAGAAAACCACTGTGCTCTGAAA, -1.3.
Turning to CCTTCAAGTCTGAGATGAAGAGGCCAGGGG, the binding signal (log2 normalized intensity) was -0.871.
In the case of GTGAAGGTCACAATTTCCAGGAGTATGTGT it was 1.26.
In the case of TTTTCAATCTTATTTTTACTATGTGGCATT it was 1.35.
On to CTCCCACCTCAGCCTCTTGAGTAGCTGGGA, for which the binding signal (log2 normalized intensity) was -1.27.
For AAAGATTGCAGCAAGGAATTCAACCCTTGT, the binding signal (log2 normalized intensity) worked out at 2.23.
In the case of AGAAGCAAATGAAAAGAATATCTCAGCAGC it was -1.21.
In the case of TGGCAAGGCAGCCTCAGCCACACGCCCATC it was -1.33; in that of CCTATGTCCCCCGACCCGCCCGACTACAAC, 5.28; in that of GCTCTTGGCTAAGACAGGGGCTATTTCTGA, -1.29.
For GCAAACCAGATAAGACTATCTCATGACAGA the value was -0.923.
As for AAAGAGCAGATGTGTCTTTATAACAGACTG, the binding signal (log2 normalized intensity) is -0.498.
In the case of TCCCACTCCCCTCCTCCAGATGGGCTCATG it was 3.76.
Consider TTTCTCTTATAGCTCAACCCCCAAAACTGC, for which the binding signal (log2 normalized intensity) was found to be 4.94.
For CTTATTTATCTTCACATTCCATCATCACGG the value was 0.518; for AGGCCTGAAATTTGGCCTGCTGAGCCCAAT, -1.02.
In the case of AACCTTTGCCCCTGGAGGGAGACATTATCT it was 4.87.
In the case of CAACTCAACCCTGGCATAGCATGCCACGAT it was -1.22.
With AATGGAGCAAAGGTCATCCTGGGCTACCGA, the binding signal (log2 normalized intensity) worked out at 5.44.
For TCTGCAAGTGAAAAAAATCCTTTTATTTAT the value was -0.773; for CCAGTCCAGATATAGGGGAGGTCCTAAAGA, -1.26; for GAAAAGGGAGTAAAGGTCACGCAGGCCACC, 4.32.
Regarding CCTTGGGTCTGTAATCTCACAACTCAGAAG, the binding signal (log2 normalized intensity) is -0.129.
In the case of TCTGGGCAAAGTTCACCAGGAAGCAAGACA it was 3.55; in that of TATCTCCTATGAGCCAAACACCATGCTAGG, -1.35.
In the case of AAAGGGAGCATATGTATGTCAGAGTATGTG it was 1.6.
In the case of TTGTACTCAGTATGTGCTGACTGACTCCTG, the binding signal (log2 normalized intensity) turned out to be 0.909.
As to AATTTCAGTATTAATGTCAAACTGATCAGA, the binding signal (log2 normalized intensity) was found to be 1.8.
For the sequence TCCTGATCCCTGAGGTCGGGGCCTGGTCTG, the binding signal (log2 normalized intensity) was 0.856.
As to TTATTTGAACACAGTTCGAACAGTTGGCCA, the binding signal (log2 normalized intensity) was determined as 1.78.
In the case of GGACCCGCGCAGCCAATAGGCGAGGACGCA it was -1.34.
For the sequence CCCATCCAAAGGTCAGCAATCTCAAAGACT, the binding signal (log2 normalized intensity) turned out to be 3.51.
As to AATGACATTCAGCAACTGGGTTCAGTTACG, the binding signal (log2 normalized intensity) came out at 0.966.
In the case of TGTACTGTAAACCTAGGTAGTGGACTCTAA it was 4.28; in that of ATCAAAGGTAGATGAATCCACAAAGATAAG, -1.1; in that of TCATTTACAGAATTTCTCAGATGCCAGCTA, -1.53.
In the case of CTTTTGCCCCCAGGCTGCAAACCTGTACAG it was 3.7.
In the case of GTTGATCTGGATGCCTCACCTGGCAAGGCA it was -1.28; in that of ATTACTGCACCCCCTTCCCACCTGCTGTCC, 5.02; in that of CATTTCAAGGCTGGCTGAGTTCCCTTACAG, -1.27.
On to ATCTTTTTACTGAGACTTAACAGTCACTCA, for which the binding signal (log2 normalized intensity) is -1.24.
For TGACTTCTTTCGCTGTAGAAAGTGGTTTCA the value was 0.357.
For TCCTAGAGAAAGGGGCTTAGGGAGGGTGAA the value was -1.21; for GGTGTGGTTAATGATTATGCCTCTGTGACC, 2.59.
With TCTTTCAAGATAACAAGGCAAACTTTATCA, the binding signal (log2 normalized intensity) was -0.554.
For AACCAAAGGAATTTAGCCTTTAACCTGCAG the value was 2.61; for CGCTGCGGGTCACGTGCCGCTGCGGGTCAC, 2.61.
In the case of TGAAATTCTGGACTTTCAACAGAGGGCCTC it was 3.56; in that of CTCACCTCTGGCCAGAGAGATGTCAGCCCA, 0.58.
AGCGGGCTTAACTAGGAGCCTGCACGCCTG: the binding signal (log2 normalized intensity) is -1.3.
For AAGGGAGCAAAGTGCATTTGATAAGGGTAT the value was 3.12; for GGTAGGCAGCCTCTGAGATGGACTCCAGTG, 2.82; for TTGCCTAAGACATGCTCGCAGCTGCATAGA, -1.21.
Regarding CGGATGGCCGTGGGTGGAAGGAAAAGAGGA, the binding signal (log2 normalized intensity) was -1.28.
In the case of AGAAAAAAATGAGTCACAATATCAGTCTTT it was -0.445; in that of CAACTCTAGGAGCATGTCAAAAGCTAAATA, -1.26.
For the sequence AGAGACAGTGGAATCTACAGAATTCTCATG, the binding signal (log2 normalized intensity) is -1.36.
For GGGATTTTCTCAGCTCTCCTCTGCCTCCAG the value was -1.23; for CACCTTTACCCCCACTCTCCGCTGGCCTGT, 4.34.
For CCTTCCCCTTTTTCTGTAAAGCTTTATTTT the value was 1.42.
In the case of AGCACACCTTTTTTTCATGCAAATTTCCGT, the binding signal (log2 normalized intensity) worked out at 0.475.
For CAGGGGAGAGAGGCAAGATCCGAAGTCTAG the value was -1.28.
In the case of GTTTGATCACAAGACATGAAGATGCAGAAC it was -1.26; in that of TCTTTGCTCTCCTCCTAATCACTGCCCTTT, 4.32; in that of TGTTAATGGCACTTCGTTTCAAAGTCCAGT, 5.24.
Take GGTGGGTGGGAAGGGATCAGAAATTGATTT: the binding signal (log2 normalized intensity) was -0.702.

The values are drawn from publication PMC10726135.
